Target: vimentin in lupus nephritis kidney tissue, P08670
Assay: multi-color confocal microscopy of lupus kidney tissue, anti-FLAG detection
Conditions: chain shown with the change;, read off a plot

vimentin in lupus nephritis kidney tissue, P08670, sequence (P08670 whole entry): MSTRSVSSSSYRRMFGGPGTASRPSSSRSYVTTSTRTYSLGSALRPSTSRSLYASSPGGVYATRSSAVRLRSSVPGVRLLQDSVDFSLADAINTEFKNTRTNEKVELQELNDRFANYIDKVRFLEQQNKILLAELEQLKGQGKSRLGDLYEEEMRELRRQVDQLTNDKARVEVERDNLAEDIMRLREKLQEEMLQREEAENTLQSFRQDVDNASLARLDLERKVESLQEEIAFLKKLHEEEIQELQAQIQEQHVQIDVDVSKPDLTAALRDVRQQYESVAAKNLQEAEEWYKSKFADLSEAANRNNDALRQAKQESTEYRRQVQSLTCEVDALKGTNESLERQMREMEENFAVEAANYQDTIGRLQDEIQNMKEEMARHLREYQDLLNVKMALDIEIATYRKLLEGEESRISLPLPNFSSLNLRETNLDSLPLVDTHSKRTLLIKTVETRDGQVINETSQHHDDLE

other: F.O.V. Co-var. (correlation coefficient between TII mAb channel and V9 channel) (parent: est. 0.40): 0.15
response (parent: est. 4700): 3200 MPI
B1: FLAG-tagged PB5mut PB5rev (all somatic hypermutations of heavy and light chain reverted to predicted germline; substitutions not printed) (protein)
chain 1: QVQLVESGGGVVQPGRSLRLSCAASGFTFSSYAMHWVRQAPGKGLEWVAVISYDGSNKYYADSVKGRFTISRDNSKNTLYLQMNSLRAEDTAVYYCARERRGNSDYFDYWGQGTLVTVSS
chain 2: EIVMTQSPATLSVSPGERATLSCRASQSVSSNLAWYQQKPGQAPRLLIYGASTRATGIPARFSGSGSGTEFTLTISSLQSEDFAVYYCQQYNNWPPMYTFGQGTKLEIK
